Results on 1 molecule are retold here after PubChem BioAssay AID248 (DTP/NCI, 2004).

Toxic doses and inconclusive results are not listed.

In this experiment the test system is L1210 leukemia ip in BDF1 mice, survival T/C. Briefly: NCI In Vivo Anticancer Drug Screen. Data for tumor model L1210 Leukemia (intraperitoneal) in B6D2F1 (BDF1) mice. The following applies: endpoint: mean survival time, schedule: Q01DX001 (ip), vehicle: Klucel (hydroxypropylcellulose) (HPC), higher = longer survival. The method in brief: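 Tumor cells were implanted, animals were treated, and survival was followed. The result divides the treated measurement by the vehicle-control measurement.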

Turning to `CN[C@H]1CCc2cc(OC)c(OC)c(OC)c2-c2ccc(SC)c(=O)cc21`, the T/C is, setting by setting: (dose: 25.0 mg/kg/injection) 107 % of control; (dose: 100.0 mg/kg/injection) 111 % of control.
